Assay results published in PMC4336329 (PLoS ONE, 2015).
The whole screen tested about 310,000 compounds, of which about 14,000 (4.5%) showed an effect of 50% or more. Effects have a minus sign here. Some of the results follow.

Target: human ether-à-go-go-related gene (hERG) potassium channel (human, UniProt Q12809)
Assay: primary screen, population patch clamp on CHO cells stably expressing hERG
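Note: peak tail current of the secondary pulse compared with the same well before compound.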

Chain of human ether-à-go-go-related gene (hERG) potassium channel (Q12809 whole entry, looked up): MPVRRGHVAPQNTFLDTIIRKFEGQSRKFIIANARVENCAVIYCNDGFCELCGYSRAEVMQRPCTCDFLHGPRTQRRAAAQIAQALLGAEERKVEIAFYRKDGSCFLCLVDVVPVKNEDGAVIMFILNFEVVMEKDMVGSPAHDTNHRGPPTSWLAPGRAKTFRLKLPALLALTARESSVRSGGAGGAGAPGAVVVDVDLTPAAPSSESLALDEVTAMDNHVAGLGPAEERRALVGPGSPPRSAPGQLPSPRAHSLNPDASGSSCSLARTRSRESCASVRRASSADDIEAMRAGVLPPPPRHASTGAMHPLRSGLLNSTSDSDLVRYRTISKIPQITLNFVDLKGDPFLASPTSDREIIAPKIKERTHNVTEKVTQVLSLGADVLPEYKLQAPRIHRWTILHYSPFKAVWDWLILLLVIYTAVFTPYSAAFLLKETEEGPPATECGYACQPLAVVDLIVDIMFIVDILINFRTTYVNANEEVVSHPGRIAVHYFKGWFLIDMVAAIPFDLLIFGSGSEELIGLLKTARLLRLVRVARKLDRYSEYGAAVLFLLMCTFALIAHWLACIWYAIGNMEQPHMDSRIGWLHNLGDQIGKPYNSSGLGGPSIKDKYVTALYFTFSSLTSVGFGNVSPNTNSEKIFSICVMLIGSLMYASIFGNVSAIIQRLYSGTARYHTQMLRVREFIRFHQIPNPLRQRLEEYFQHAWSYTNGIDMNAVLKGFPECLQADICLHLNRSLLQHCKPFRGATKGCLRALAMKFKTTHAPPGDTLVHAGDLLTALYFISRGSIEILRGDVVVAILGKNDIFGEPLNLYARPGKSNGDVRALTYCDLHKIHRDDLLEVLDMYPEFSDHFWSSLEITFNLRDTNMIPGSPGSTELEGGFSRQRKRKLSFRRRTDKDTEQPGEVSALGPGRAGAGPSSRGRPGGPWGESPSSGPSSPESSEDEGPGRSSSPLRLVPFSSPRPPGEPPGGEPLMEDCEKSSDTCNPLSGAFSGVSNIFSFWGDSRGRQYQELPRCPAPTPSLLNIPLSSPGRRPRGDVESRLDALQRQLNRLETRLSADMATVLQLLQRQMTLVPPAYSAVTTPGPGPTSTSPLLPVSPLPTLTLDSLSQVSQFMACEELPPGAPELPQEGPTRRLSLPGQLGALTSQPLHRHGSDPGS

Row | Structure (SMILES) | hERG current change (%, negative = inhibition) at 10uM [%]
1 | CCN(CC)C(=O)c1ccc(S(=O)(=O)NCc2cccnc2)cc1 | 13.9
2 | COC(=O)c1c(NC(=O)CC2SC(N)=NC2=O)sc2c1CCC(C(C)(C)C)C2 (stereo not shown) | 6.31
3 | CC(C)(C)C(=O)CSc1nccc(=O)[nH]1 | -0.329
4 | CCN(CC)C(=O)C1CCCN(C(=O)c2cc(COc3ccc4ncccc4c3)on2)C1 (stereo not shown) | 7.9
5 | O=C(c1cnn2c(C(F)(F)F)cc(-c3ccccc3)nc12)N1CCCCC1c1cccnc1 (stereo not shown) | -17.9
6 | COc1ccccc1NC(=O)c1cc(C(=O)Nc2ccccc2OC)n(C)n1 | 19
7 | Nc1ncc(Br)cc1S(=O)(=O)NCCc1ccccc1 | 13.7
8 | COc1cc(OC)c(C2CC(=O)N3CN(C)CSC3=C2C#N)cc1OC (stereo not shown) | 19.4
9 | CC(OC(=O)Cc1coc2cc3c(cc12)CCC3)C(=O)NCc1ccc2c(c1)OCO2 (stereo not shown) | -8.93
10 | CCOc1ccc(CN(C)C(C)C(=O)NCCc2ccc(F)cc2)cc1 (stereo not shown) | -71.5
11 | COc1cccc(OC)c1C(=O)NC(=S)N1CCOCC1 | 17.2
12 | CC(C)Oc1ccc(C(=O)NC2CCCCC2)cc1 | 10.3
13 | COc1ccc(-c2noc(-c3ccccc3-c3ccccc3)n2)cc1OC | 7.72
14 | CN(C)C(=O)c1ccc(NC(=O)CSc2nc3ccccc3[nH]2)cc1 | 1.59
15 | O=C(O)CN1C(=O)/C(=C/c2cccc(Cl)c2)Oc2ccccc21 | -4.77
16 | Cc1ccc(S(=O)(=O)N2CCCCC2)cc1NC(=O)COC(=O)C1CC2C=CC1C2 (stereo not shown) | -62
17 | CCCNC(=O)Nc1nc(CC(=O)OCC)cs1 | 29.1
18 | COc1ccc(S(=O)(=O)N2CCC3(CC2)OCCN3S(=O)(=O)c2ccc(C)cc2)cc1OC | -28.7
19 | O=C(CN1C(=O)COc2ccc(S(=O)(=O)N3CCCC3)cc21)NC1CC1 | 7.44
20 | COc1ccc(NC(=O)c2ccc(Cl)cc2)c[n+]1[O-] | 12.9
21 | O=C(COc1cccnc1[N+](=O)[O-])NCc1ccc(F)cc1 | -18
22 | COC(=O)c1cc(S(=O)(=O)Nc2nn(C)c3ccccc23)oc1C | 14.3

Row | Structure (SMILES) | hERG current change (%, negative = inhibition) at 10uM [%]
23 | COc1ccc(C(=O)CC(=O)c2ccccc2O)cc1OC | -2.72
24 | O=C(N/N=C/C=C\c1ccc([N+](=O)[O-])cc1)c1cccnc1 | -4.15
25 | NS(=O)(=O)c1ccc(Nc2ccc3cc(S(=O)(=O)N4CCCCC4)ccc3n2)cc1 | -30.6
26 | CC/C(=N\NC(=O)c1c(C)nc2ccccn12)c1ccc(Cl)cc1 | -18.1
27 | Nc1c(N(Cc2ccco2)C(=O)c2ccc(Br)cc2)c(=O)[nH]c(=O)n1Cc1ccccc1 | 8.29
28 | O=c1[nH]c2ccccc2n1CCC1CCCCC1 | -4.37
29 | CCN1C(=O)C(CC(=O)Nc2ccc(OC)cc2)N(Cc2ccco2)C1=S (stereo not shown) | -14
30 | CCc1cc(C(=O)N2CCCC(C(=O)c3ccc(Oc4ccccc4)cc3)C2)n(C)n1 (stereo not shown) | -33.1
31 | CN1C(=O)/C(=C/c2ccc(O)c([N+](=O)[O-])c2)N(C)C1=S | 7.77
32 | Cc1ccc(S(=O)(=O)N(C)C)cc1NC(=S)NNC(=O)C(N)=O | 22
33 | O=C1CCC(=O)N1CCC(c1ccc(F)cc1)c1ccco1 (stereo not shown) | 4.27
34 | O=C1N/C(=N\c2ccccn2)SC1Cc1ccccc1Cl (stereo not shown) | 13.9
35 | Cn1c(SCC2CCCCC2)nnc1-c1ccncc1 | -5.78
36 | CCN(CC(=O)NC1CCCCC1)S(=O)(=O)c1ccc(Cl)cc1 | 2.03
37 | Cc1ccccc1C(=O)OCCN1CCOCC1.Cl | 8.37
38 | CC(C)C[C@H](NC(=O)CCCn1nnc2ccccc2c1=O)C(=O)O | 4.62
39 | c1ccc(NC2=NCCN2CC2CCCCC2)cc1 | -4.59
40 | O=C(NCCc1cccc(F)c1)[C@@H]1CSC2c3ccccc3C(=O)N21 (stereo partly shown) | -13.9
41 | Cc1[nH]n(-c2cccc(Cl)c2)c(=O)c1-c1ccc(Cl)cc1 | 20
42 | CCOc1cccc2sc(=NC(=O)CCS(=O)(=O)c3ccccc3)n(CC)c12 | 6.33
43 | CCOC(=O)N1CCN(C(=O)c2cc3c(=O)n4ccccc4nc3s2)CC1 | -0.653
44 | C=CCOC(=O)/C(=C\c1cccc2ccccc12)NC(=O)c1ccccc1 | -9.44

Row | Structure (SMILES) | hERG current change (%, negative = inhibition) at 10uM [%]
45 | CC(C)c1ccc(C2C3=C(COC3=O)Nc3cc4c(cc32)OCO4)cc1 (stereo not shown) | -9.67
46 | COc1ccc(NS(=O)(=O)c2cc(NC(=O)c3ccncc3)ccc2N2CCOCC2)cc1 | 4.27
47 | CCOC(=O)c1cnn2c(N)c(C#N)cnc12 | 13.9
48 | Clc1ccc(-c2cc3ccccc3[nH]2)cc1 | -10.4
49 | CCOc1cc(N2CCOCC2)c(OCC)cc1NC(=O)Cc1ccccc1OC | -5.77
50 | Cc1cc(C(=O)COc2ccccc2C(N)=O)c(C)n1CC1CCCO1 (stereo not shown) | 11.8
51 | CS(=O)(=O)N1N=C(c2ccccc2)CC1c1ccc2nccnc2c1 (stereo not shown) | -0.803
52 | COc1ccc(C)cc1NC(=O)Nc1ccccc1 | 2.19
53 | CCO[C@H]1OC(C(=O)NCc2nc3ccccc3[nH]2)=C[C@@H](c2ccc(Br)cc2)[C@@H]1CCCO | -13.5
54 | Cc1ccc(-c2nnc(N3CC(C)OC(C)C3)c3ccccc23)cc1 (stereo not shown) | -20.6
55 | O=C(CN(Cc1ccccc1)C(=O)c1ccc2c(c1)OCCO2)NCc1ccc2c(c1)OCO2 | -59
56 | CCn1ccc2c(OCC(=O)NCCc3ccc(OC)c(OC)c3)cccc2c1=O | 4.05
57 | C[C@H](NC(=O)c1ccc(C(C)(C)C)cc1)C(=O)N1CCC2(CC1)NCCc1[nH]cnc12 | 21.6
58 | Cc1nc(N2CCCCC2)c2c(C)c(C(=O)Nc3ccc4c(c3)OCCO4)sc2n1 | 11.6
59 | Cc1ccc(NC(=O)C(=S)NCc2ccco2)cc1 | 7.1
60 | O=C(Nc1cccc(C2OCCCO2)c1)c1cccs1 | 2.99
61 | CN(C[C@H](CC1CCCCC1)N(C[C@H](Cc1ccccc1)N(CCc1ccccc1)N=O)N=O)N=O.[Na+] | 10.5
62 | CCOC(=O)C1=C(CC)Nc2ccccc2N=C1NC(=O)c1cccc(S(=O)(=O)N2CCCC2)c1 | -4.34
63 | CC(NC1CCCCC1)C(O)C12CC3CC(CC(C3)C1)C2.Cl (stereo not shown) | -16.4
64 | O=C1c2ccccc2NC(c2ccc(F)cc2)N1Cc1ccccc1 (stereo not shown) | -9.65
65 | O=S(=O)(c1ccc(-n2cnnn2)cc1)N1CCC(N2CCCCC2)CC1 | -38.1
66 | O=C(CN(C(=O)c1csnn1)c1cccc(F)c1)NCc1ccc2c(c1)OCO2 | -7.22

Row | Structure (SMILES) | hERG current change (%, negative = inhibition) at 10uM [%]
67 | CCOC(=O)/C(C#N)=C\c1cn(C)c2ccccc12 | 25.7
68 | Cc1cccc(N2C(=O)NC(=O)/C(=C\c3cc(C)n(-c4sc5c(c4C#N)CCCC5)c3C)C2=O)c1C | 4.35
69 | O=C(NC1CCCCC1)c1ccc(-c2ccccc2[N+](=O)[O-])o1 | -22.9
70 | Cc1nnc(SCC(=O)Nc2nccs2)n1N | -10.7
71 | COc1ccccc1N(C)S(=O)(=O)c1ccc(C(=O)OCC(=O)Nc2cc(C)on2)cc1 | 14.8
72 | CN(C)CCCN(C(=O)c1ccc2c(c1)OCCO2)c1nc2cc3c(cc2s1)OCO3.Cl | -56
73 | COCCNC(=O)c1ccccc1NC(=O)CSc1ccc(C)cc1 | -4.29
74 | Cc1cc(/C=C2\C(=N)N3N=C(S(C)(=O)=O)SC3=NC2=O)c(C)n1Cc1ccccc1 | -2.95
75 | Nc1cc[n+](CC(=O)c2ccccc2)cc1.[Br-] | 27
76 | O=C(CSc1nc(-c2ccccc2)ns1)NCC1CCCO1 (stereo not shown) | 4.01
77 | O=C1CC(C(=O)Nc2cccc(F)c2)n2c(nc3ccccc32)N1 (stereo not shown) | 21.1
78 | O=[N+]([O-])c1c(NCCO)cc(N2CCCCC2)c2nonc12 | 6.19
79 | C=CCOc1ccc(C=Nc2cccc(Cl)c2)c(O)c1 | 4.22
80 | Cc1nnc(SC(=O)N2c3ccccc3Sc3ccccc32)s1 | 0.134
81 | O=C(c1ccccc1F)N1CCCc2ccccc21 | 9.8
82 | CCCc1cc(-n2cnc3ccccc32)n2c(nc3ccccc32)c1C#N | -50.1
83 | CCOc1ccc(/C=N/n2c(C)nnc2C)cc1OC | 20.2
84 | Cc1cc(S(=O)(=O)NCc2ccncc2)c(C)cc1Br | -17.7
85 | CC1(C(=O)Nc2ccc3c(c2)OCCO3)CC1(Cl)Cl (stereo not shown) | 10.1
86 | Cc1cccc(C)c1NC(=O)C(Cl)C(=O)c1ccccc1 (stereo not shown) | 27.6
87 | COc1ccc(S(=O)(=O)N2CCCC(C(=O)N3CCCCCC3)C2)cc1 (stereo not shown) | -25.2
88 | CCN(CCn1cccn1)Cc1nc(-c2ccccc2)no1 | -5.54
